Measurements taken from the supplement of paper PMC7335073.
Over roughly 4,100 sequences, “relative CpG methylation activity (normalised to average over all NNNCGNNN flanks)” has its median near 0.94; the highest 2% begin near 1.9. The list shows a part of the results.

target: DNMT3B catalytic domain (mouse) (UniProt O88509); assay: relative CpG methylation activity (normalised to average over all NNNCGNNN flanks) (relative (1 = mean)); higher = more methylation of the central CpG; settings: system: in vitro, murine catalytic domain; CpG state: hemimethylated substrate pool; residues: 558-859
Chain of UniProt O88509 (O88509 558-859): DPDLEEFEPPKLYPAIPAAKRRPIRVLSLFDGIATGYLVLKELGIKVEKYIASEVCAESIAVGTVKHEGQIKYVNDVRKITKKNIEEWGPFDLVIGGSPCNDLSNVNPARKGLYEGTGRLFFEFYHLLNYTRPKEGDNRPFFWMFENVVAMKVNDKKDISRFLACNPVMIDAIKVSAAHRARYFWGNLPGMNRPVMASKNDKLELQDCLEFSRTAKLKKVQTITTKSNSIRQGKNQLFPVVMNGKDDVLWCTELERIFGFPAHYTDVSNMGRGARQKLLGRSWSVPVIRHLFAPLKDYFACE
Procedure, shortened: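 Murine DNMT3A or DNMT3B catalytic domain methylated pooled dsDNA substrates, each carrying a central CpG within 10 random flanking nucleotides, with 0.8 mM S-adenosyl-L-methionine in HEPES pH 7.5 buffer at 37 °C for 60 min. Proteinase K treatment, BsaI-HFv2 digestion, hairpin ligation, bisulfite conversion and two-step PCR preceded Illumina sequencing. Relative methylation activity is the average methylation of a flanking context divided by the mean across all contexts, where a context spans three bases on each side, and every experiment was repeated twice independently.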

Row | Sequence | relative CpG methylation activity
1 | TTGCGACG | 1.27
2 | GCACGATA | 1.45
3 | TGTCGAGT | 1.05
4 | CATCGGAC | 1.02
5 | TGGCGGAG | 0.487
6 | TGGCGCTG | 0.26
7 | CACCGTCC | 0.794
8 | AATCGCCG | 0.91
9 | AAGCGACA | 0.795
10 | GACCGGTG | 0.741
11 | TTACGAAT | 1.76
12 | ATACGATG | 1.63
13 | GAGCGAGC | 0.934
14 | GATCGCTG | 0.405
15 | TGCCGGCG | 1.03
16 | CCTCGACT | 1.22
17 | CTCCGAAC | 1.87
18 | CCCCGTTG | 0.456
19 | CGTCGACA | 1.23
20 | TCCCGAAC | 1.57
21 | TGGCGGTA | 0.386
22 | ATCCGGTT | 1.46
23 | TAGCGAAC | 0.912
24 | TACCGAGC | 1.53
25 | GTGCGCGC | 1.06

Row | Sequence | relative CpG methylation activity
26 | CAACGTTC | 1.08
27 | AGGCGACG | 0.67
28 | GTGCGCTT | 1.14
29 | TGACGGTT | 0.917
30 | TGGCGTGG | 0.136
31 | TTCCGCAG | 0.808
32 | CGCCGCAT | 0.251
33 | CGGCGGTT | 0.459
34 | GACCGCCG | 0.483
35 | TAACGTGA | 0.575
36 | GACCGCAT | 0.313
37 | GTCCGGCG | 1.76
38 | AACCGTAG | 0.152
39 | TCGCGACG | 0.833
40 | AGACGCCC | 1.46
41 | TCCCGAGT | 1.34
42 | CTGCGATA | 1.22
43 | GTTCGCTT | 0.867
44 | CCGCGCTT | 0.819
45 | AAACGTGT | 0.636
46 | ATTCGAGT | 1.28
47 | TGACGCAC | 0.811
48 | GCTCGATG | 1
49 | TTTCGTAA | 0.65
50 | ACGCGGTC | 1.14

Row | Sequence | relative CpG methylation activity
51 | GCACGCTT | 1.05
52 | ATCCGTTC | 0.92
53 | TGCCGCGC | 0.424
54 | GCGCGTAT | 0.946
55 | AATCGATA | 1.62
56 | GCGCGGTG | 0.568
57 | CAGCGTGC | 0.439
58 | CTTCGGTT | 1.72
59 | CGCCGTTT | 0.236
60 | AATCGGCG | 1.6
61 | TGTCGGGC | 1.48
62 | GCACGAAC | 1.39
63 | GCGCGTTT | 0.478
64 | TAACGTGG | 0.473
65 | GTCCGTTA | 0.801
66 | TCGCGAAT | 0.679
67 | TTCCGGAC | 1.57
68 | TTGCGTGG | 0.257
69 | CGACGTCG | 0.941
70 | AGTCGTAT | 0.304
71 | TCCCGCCT | 1.02
72 | CTGCGTGC | 0.956
73 | AGGCGCAC | 0.425
74 | GATCGTAT | 0.543
75 | ATCCGCTT | 1.12

Row | Sequence | relative CpG methylation activity
76 | CTCCGCAG | 0.55
77 | ATACGTGG | 0.556
78 | GGGCGGCC | 0.89
79 | ATCCGATG | 1.39
80 | CTGCGACT | 1.54
81 | TATCGAGA | 1.69
82 | CGCCGGGC | 1.18
83 | TTTCGCTG | 0.895
84 | ATTCGCCA | 0.989
85 | CTTCGAGC | 1.79
86 | CTCCGAGT | 1.99
87 | ATCCGCCT | 1
88 | TGTCGTTG | 0.219
89 | ACCCGCGC | 0.569
90 | AATCGCCT | 0.933
91 | ACCCGAAG | 1.11
92 | TGGCGAAG | 0.444
93 | GGGCGCCG | 0.595
94 | GTACGTCC | 1.5
95 | TCACGTGT | 0.575
96 | TTACGGCG | 2.25
97 | AATCGCAG | 0.452
98 | CTCCGCCG | 1.14
99 | ACGCGATA | 1.19
100 | TGCCGCGG | 0.2

Row | Sequence | relative CpG methylation activity
101 | GGGCGATA | 0.723
102 | CGGCGTTT | 0.454
103 | GTGCGAAT | 1.22
104 | GGCCGCTG | 0.227
105 | CACCGTTA | 0.391
106 | AGGCGCTA | 0.214
107 | CGTCGGGT | 0.965
108 | ATACGGTG | 1.75
109 | GTTCGGGC | 1.53
110 | GTACGTGA | 0.765
111 | TGACGTCT | 0.919
112 | CTTCGCAT | 0.762
113 | GTGCGCTA | 0.474
114 | AAACGACT | 1.49
115 | TGCCGACA | 0.803
116 | ACCCGGAA | 0.948
117 | AGCCGCAA | 0.129
118 | TCACGAGA | 1.96
119 | TGGCGCCA | 0.525
120 | AGTCGGCC | 1.69
121 | AAACGAGT | 1.79
122 | ATCCGATT | 1.56
123 | CTCCGCAC | 1.34
124 | CTGCGTGG | 0.781
125 | CTTCGACT | 1.54

Row | Sequence | relative CpG methylation activity
126 | ACGCGCCC | 0.935
127 | AAGCGGTC | 0.856
128 | CGGCGAGT | 0.779
129 | TGGCGTAT | 0.719
130 | ATACGCGG | 1.2
131 | CTTCGCTC | 0.965
132 | TCGCGCTG | 0.501
133 | TTCCGGCG | 2.04
134 | TGACGCCG | 0.831
135 | ATGCGAAT | 1.12
136 | TCACGCAC | 1.09
137 | ACACGAGT | 1.58
138 | CTGCGGGT | 1.5
139 | TCCCGCTG | 0.561
140 | GCCCGCTG | 0.457
141 | GATCGATC | 1.48
142 | ACCCGCGG | 0.568
143 | GTCCGCCG | 0.894
144 | GCACGAGC | 1.79
145 | GCGCGCTG | 0.425
146 | GTTCGTAC | 1.18
147 | GCCCGATC | 1.58
148 | CGCCGAGC | 1.3
149 | ATGCGAAG | 0.766
150 | AATCGATG | 1.29

Row | Sequence | relative CpG methylation activity
151 | ATCCGAGG | 1.21
152 | TTGCGTAC | 1.26
153 | GTGCGTGT | 0.463
154 | GTGCGTTT | 0.63
155 | GTTCGGTC | 1.15
156 | ACTCGACG | 1
157 | CCTCGGAC | 1.14
158 | TGCCGCAT | 0.247
159 | TCTCGTGT | 0.266
160 | ACACGTTA | 0.789
161 | CTGCGACA | 1.21
162 | CATCGATG | 1.48
163 | TTGCGAGG | 1.4
164 | CCACGGGC | 1.72
165 | GCTCGGCA | 1.47
166 | AATCGTTT | 0.303
167 | ACTCGCAG | 0.345
168 | AGGCGATG | 0.563
169 | CCACGGTT | 1.45
170 | CTCCGCTA | 1.15
171 | GCCCGGGT | 1.24
172 | GCCCGATG | 1.41
